Hit rate of the full screen: of about 48,000 compounds, about 1,200 (2.5%) were called active. Inconclusive results (about 2%) are left out.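 How the source made its calls: active means activation of at least 60% and not above a set upper limit (about 1 call in 100 departs from these limits); inconclusive means activation of 40% to 60%, or above that upper limit; inactive means activation under 40%.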 The list shows a part of the results.

Sequence of UniProt O75388 (O75388 whole entry, looked up): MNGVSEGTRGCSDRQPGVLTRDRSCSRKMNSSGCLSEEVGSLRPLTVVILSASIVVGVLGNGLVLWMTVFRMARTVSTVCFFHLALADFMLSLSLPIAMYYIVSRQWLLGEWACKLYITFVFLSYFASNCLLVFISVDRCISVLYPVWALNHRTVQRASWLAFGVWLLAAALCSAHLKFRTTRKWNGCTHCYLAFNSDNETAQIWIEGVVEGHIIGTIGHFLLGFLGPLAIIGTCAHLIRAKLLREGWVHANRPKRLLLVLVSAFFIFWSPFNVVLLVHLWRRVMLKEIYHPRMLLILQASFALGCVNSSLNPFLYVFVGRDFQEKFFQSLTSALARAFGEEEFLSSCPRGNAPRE

The assay addresses Probable G-protein coupled receptor 32 (Homo sapiens) (UniProt O75388). Description: qHTS for Agonists of Human Resolvin D1 Receptor DRV1. Further: 0% is about no effect. To be noted: CHO-K1 GPR32 beta-arrestin PathHunter luminescence, 90 min; at 76.9 µM; stronger effect = higher value; zero percent set by DMSO-only wells. Put shortly:
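Cells are plated overnight, treated with compounds in DMSO for 90 minutes at 37 °C, and developed with PathHunter detection reagent for 1 hour before luminescence is read; signal reflects beta-arrestin binding to GPR32 in engineered CHO-K1 cells.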
Background: qHTS replaces the single test concentration by a dilution series.
As for `Cc1oc2ccc(O)c(CN3CCCC3)c2c1C(=O)Nc1ccc(C(C)C)cc1`, the activation is active: 118%.

On to `N[C@@H](Cc1ccc(F)cc1)C(=O)O`, for which the activation was inactive: 11.4%.

`Cc1ccccc1Nc1nn2c(=O)c3ccc(C(=O)NCCc4ccc(Cl)cc4)cc3nc2s1`: the activation is inactive: 11.7%.

Consider `Cc1ccc2nc(Cl)c3cc(C(=O)N4CCCCC4C)sc3c2c1` (stereo not given), for which the activation was inactive: 0.366%.

Take `Cc1ccccc1CNC(=O)c1oc2c(c1C)-c1[nH]ncc1CC2`: the activation is inactive: -9.56%.

As to `O=P(O)(O)C(O)(Cc1cccnc1)P(=O)(O)O`, the activation is inactive: -4.69%.

As to `CC(C)C1C(=O)Nc2ccc(S(=O)(=O)NCCc3ccc(Cl)cc3)cc21` (stereo not given), the activation is active: 87.3%.

As for `COc1ccc(Cl)cc1NC(=O)CN1C(=O)C(C)(C)c2cc(S(=O)(=O)N3CCCCC3)ccc21`, the activation is inactive: -2.83%.

Turning to `Cc1cc(N2CCN(C)CC2)nc2ccc(NC(=O)Nc3cccc(Cl)c3)cc12`, the activation was active: 93.5%.

Regarding `Cc1cccc(-n2ncc(C(=O)N3CCN(c4ccc(C)cc4C)CC3)c2C2CCN(C(=O)OC(C)(C)C)CC2)c1`, the activation was inactive: -15%.

As to `CCOc1ccc(Nc2c(S(=O)(=O)c3ccc(Cl)cc3)cnc3ccc(OCC)cc23)cc1`, the activation is inactive: -44%.

Turning to `CCOc1ccc(C2c3c(oc4ccc(C)cc4c3=O)C(=O)N2CCCN2CCOCC2)cc1` (stereo not given), the activation was inactive: -11%.

Take `CCN1c2ccccc2-c2nc(SCC(=O)NCc3ccc(Cl)cc3)ncc2S1(=O)=O`: the activation was inactive: 14.4%.

Consider `Cc1ccsc1CN(C(=O)c1oc2ccc(Br)cc2c1C)C1CCS(=O)(=O)C1` (stereo not given), for which the activation was inactive: -26.5%.

With `Cc1cn(C)c(CC(=O)NCc2ccccc2)c1C(=O)O`, the activation is inactive: 2.35%.

In the case of `Cc1c(C)n(Cc2ccc(F)cc2)c2ccc(C(=O)NCc3ccco3)cc12`, the activation was inactive: -21.3%.

Regarding `CCOc1ccc(CCNC(=O)Cn2nnc(-c3ccccc3Cl)n2)cc1OCC`, the activation is inactive: 45%.

`O=C(CC1C(=O)N(c2ccccc2)C(=O)N1CCc1cccs1)Nc1ccc(F)cc1` (stereo not given): the activation was inactive: -0.708%.

`O=C(CCCn1c(=O)c2cccn2c2cccnc21)NCc1ccccc1Br`: the activation is inactive: -20.2%.

With `CSc1ncc(C(=O)N2CCN(c3cccc(Cl)c3)CC2)c(C)n1`, the activation is inactive: 16.2%.

With `O=C(CSc1ncc(-c2ccccc2)[nH]1)Nc1ccc(Cl)cc1`, the activation is inactive: 38.3%.

As for `Cc1ccc(CNc2nc(-c3ccco3)nn2S(=O)(=O)c2ccc3ccccc3c2)cc1`, the activation was inactive: -15.2%.

On to `O=C(NCCN1CCN(c2cccc(Cl)c2)CC1)Nc1ccccc1C(F)(F)F`, for which the activation was inactive: -18.8%.

In the case of `Cc1ccc(S(=O)(=O)Nc2cc3c(cc2NCc2ccccc2)n(C)c(=O)n3C)cc1`, the activation is inactive: 18.9%.

On to `COc1ccc2c(c1)CC(C(=O)NCCCN1CCN(c3cccc(Cl)c3)CC1)CO2` (stereo not given), for which the activation was inactive: -13%.

Regarding `CCOC(=O)c1sc2ccccc2c1S(=O)(=O)N1CCN(c2cccc(C)c2)C(C)C1` (stereo not given), the activation is inactive: -25.4%.

For `O=C(Cn1c(=O)nc(-c2ccccc2)c2cc(Cl)ccc21)N1CCN(c2ccccc2F)CC1`, the activation was inactive: 3.56%.

As to `COc1ccc(-c2cc3nc(C)c(CCC(=O)N4CCN(c5ccc(F)cc5)CC4)c(C)n3n2)c(OC)c1`, the activation is inactive: -0.0624%.

On to `Cc1ccc(Nc2nc3ccccc3c3nnc(C)n23)c(C)c1`, for which the activation was inactive: -26.5%.

With `CCCCC#Cc1nc(NC)c2ncn([C@@H]3O[C@H](CO)[C@@H](O)[C@H]3O)c2n1`, the activation is inactive: -0.005%.

For `CC(=O)c1cccc(Nc2cc(C)nc3nc(Cc4ccccc4)nn23)c1`, the activation was inactive: 8.23%.

Take `CCCCN(CCCC)CCNC(=O)CN1C(=O)CSc2ccc(S(=O)(=O)N3CCOCC3)cc21`: the activation was inactive: -9.55%.

Turning to `COc1ccc(NC(=O)c2c(C)oc3ccc(O)c(CN4CCN(Cc5ccccc5)CC4)c23)cc1Cl`, the activation was inactive: -14.5%.

As to `Cc1oc2ncn(C)c(=O)c2c1C(=O)NCCCN1CCCCC1C` (stereo not given), the activation was inactive: -6.09%.

On to `CCCOc1ccc(CNC(=O)c2ccc(C)c(-n3c(C)nc4cccnc43)c2)cc1`, for which the activation is inactive: -6.39%.

Take `COc1cccc(CNC(=O)c2ccc3c(=O)n4nc(Nc5ccccc5)sc4nc3c2)c1`: the activation was inactive: -16.6%.

With `CCOC(=O)c1c(C)n(-c2ccccc2)c2ccc(OC(=O)c3cccc(C)c3)cc12`, the activation was inactive: 9.71%.

In the case of `CC(=O)c1cc(-c2ccc(F)cc2)n(CC(=O)NC2CCC(C)CC2)c1C` (stereo not given), the activation is inactive: -17.3%.

Turning to `CC(=O)c1cccc(NC(=O)Nc2nnc(N3CCCC3)s2)c1`, the activation is inactive: 4.95%.

Take `COc1ccc2cc(-c3nnc(Nc4ccccc4)s3)c(=O)oc2c1`: the activation is inactive: -3.94%.

Turning to `CCN(CC)C(=O)N1CCN(C)CC1`, the activation was inactive: 4.69%.

For `COc1ccc(-n2nc(C(=O)Nc3ccc(Cl)cn3)c3c4ccccc4n(C)c3c2=O)cc1`, the activation was inactive: 5.8%.

`O=C(Nc1cccc(C(F)(F)F)c1)N1CC2CCCN2c2ccccc21` (stereo not given): the activation is inactive: -6.63%.

In the case of `Cc1ccccc1C(=O)OCc1cc(=O)n2nc(C(C)C)sc2n1`, the activation was inactive: -3.12%.

With `COc1cc(OC)c(N(C)C(=O)c2cn(C3CCCC3)c(=O)c3c2c2ccccc2n3C)cc1Cl`, the activation is inactive: -35.6%.

With `Nc1ccc(N=Nc2ccccc2)c(N)n1`, the activation is inactive: -43.9%.

On to `COc1ccc(-n2nc(C(=O)O)c(=O)n(C)c2=O)cc1`, for which the activation was inactive: -7%.

Turning to `Cc1ccc(N2CCN(C(=O)c3cnn(-c4ccc(F)cc4F)c3C3CCN(C(=O)OC(C)(C)C)CC3)CC2)c(C)c1`, the activation is inactive: -28.7%.

On to `CN(Cc1ccccc1)S(=O)(=O)c1ccc2[nH]c3c(c2c1)CCCCC3`, for which the activation was inactive: 40.2%.

Consider `CCN1CCN(C(c2ccc(C)cc2)c2c(O)cc(C)n(Cc3ccco3)c2=O)CC1` (stereo not given), for which the activation is inactive: -16.3%.

Consider `O=C(O)c1cc(O)c(O)c(O)c1`, for which the activation was inactive: 36%.

With `CCOC(=O)N1CCC(NC(=O)c2cnn(-c3cccc(F)c3)c2-n2cccc2)CC1`, the activation is inactive: -7.83%.

As to `Cc1c(Cl)cccc1NC(=O)C1CCCN(c2ncnc3onc(C)c23)C1` (stereo not given), the activation is inactive: 2.43%.

On to `O=C(NCc1ccccc1Cl)c1ccc2c(c1)N(Cc1ccccc1)C(=O)CS2`, for which the activation is inactive: -16.4%.

In the case of `Cc1ccc(Cl)cc1N1CCN(C(=O)c2ccc3c(c2)CCN3S(=O)(=O)c2ccccc2)CC1`, the activation is inactive: -21.8%.

Values taken from PubChem BioAssay AID1346428 (National Center for Advancing Translational Sciences (NCATS), 2018).
